Read counts are not given, so values of variants with three or more changes are uncertain.
B1: LINE1-full (parent)
chain: UACGUAGGUGGUUUUCCCCUGAUAGUGCUAAGGGGGCCUGGAAGUUUGGACUGGGCAGAGCUCAACACAGCGUGGCAAAGUGGCUGUGGCUAGACUGCCUCUCUGGAUUCCUCGUCACUCAGCAGGGCAUCUCUGAGAGAAAUGCC

Variants of: B1
Experiment: self-cleavage, relative activity (ratio to wild type); higher = more cleavage; in vitro, sequencing; the parent is a self-cleaving ribozyme

Row | Variant | self-cleavage
1 | UACGUAGGUGGUUUUCCCCUGAUAGUGCCAAGGGGGCCUGGAAGUUUGGACUGGGCAGAGCUCAACACAGCGUGGCAAAGUGGCUGUGGCUAGACUGCCUCUCUGGAUUCCUCGUCUCUCAGCAGGGCAUCUCUGAGAGAAACGCC [U29C A117U U143C] | 1.03
2 | UACGUAGGUGGUUUUCCCCUGAUAGUGCCAAGGGGGCCUGGGAGUUUGGACUGGGCAGAGCUCAACACAGCGUGGCAAAGUGGCUGUGGCUAGACUGCCUCUCUGGACUCCUCGUCACUCAGCAGGGCAUCUCUGAGAGAAAUGCC [U29C A42G U108C] | 0.84
3 | UACGUAGGUGGUUUUCCCCUGAUAGUGCCAAGGGGGCCUGGAAGUUUGGACUGGGCGGAGCUCAGCACAGCGUGGCAAAGUGGCUGUGGCUAGACUGCCUCUCUGGAUUCCUCGUCACUCAGCAGGGCAUCUCUGAGGGAAAUGCC [U29C A57G A65G A138G] | 0
4 | UACGUAGGUGGUUUUCCCCUGAUAGUGCCAGGGGGGCCUGGAAGUUUGGACUGGGCAGAGCUCAACACAGCGUGGCAAAGUGGCUGCGGCUAGACUGCCUCUCUGGAUUCCUCGUCACUCAGCAGGGCAUCUCUGAGGGAGAUGCC [U29C A31G U87C A138G A141G] | 0
5 | UACGUAGGUGGUUUUCCCCUGAUAGUGCCAAGGGGGCCUGGAAGUUUGGACUGGGCAGAGCUCAACACAGCGUGGCGAAGUGGCUGUGGCUAGACUGCCUCUCUGGAUUCCUCGUCGCUCAGCAGGGCAUCUCCGAGAGAAAAGCC [U29C A77G A117G U134C U143A] | 0
6 | UACGUAGGUGGUUUUCCCCUGAUAGUGCCAAGGGGGCCUGGAAGUUUGGACUGGGCAGAGCUCAACACAGCGUGGCAAAGUGGCUGUGGCUAGACUGCCUCUCUGGAUUCCUGGUCACUCAGCAGGGCAUCACUGAGAGAAAUGCC [U29C C113G U132A] | 0.96
7 | UACGUAGGUGGUUUUCCCCUGAUAGUGCCAAGGGGGCCUAGAAGUUUGGACUGGGCAGAGCUCAACACAGCGUGGCGAAGUGGCUGUGGCUAGACUGCCUCUCUGGAUUCCUCGUCACUCAGCAGGGCAUCUCUGAGAGAAAUGCC [U29C G40A A77G] | 1.02
8 | UACGUAGGUGGUUUUCCCCUGAUAGUGCCAAGGGGGCCUGGAAGUUUGGACUGGGCAGAGCUCAACACAGCGUGGCAGAGUGGCUGCGGCUAGACUGCCUCUCUGGAUUCCUCGUCACUCAGCAGGGCAUCUCUGAGAGAGAUGCC [U29C A78G U87C A141G] | 0.19
9 | UACGUAGGUGGUUUUCCCCUGAUAGUGCCAAGGGGGCCUGAAAGUUUGGACUGGGCAGAGCUCAACACAGCGUGGCAAAGUGGCUGUGGCUAGACUGCCUCUCUGGAUUCCUCGUCACUCAGCAGGGCAUCUCUGGGAGAAAUGCC [U29C G41A A136G] | 1.72
10 | UACGUAGGUGGUUUUCCCCUGAUAGUGCCAAGGGAGCCUGGAAGUUUGGACUGGGCAGAGCUCAACACAGCAUGGCAAAGUGGCUGUGGCUAGACUGCCUCUCUGGAUUCCUCGUCACUCAGCAGGGCAUCUCUGAGAGAAAUGCC [U29C G35A G72A] | 1.42
11 | UACGUAGGUGGUUUUCCCCUGAUAGUGCCAAGGGAGCCUGGAAGUUUGGACUGGGCAGAGCUCAACACAGCGUGGCAAAGUGGCUGUGGCUAGACUGCCUCUCUGGGUUCCUCGUCACUCAGCAGGGCAUCUCUGAGAGAAAUGCC [U29C G35A A107G] | 1.15
12 | UACGUAGGUGGUUUUCCCCUGAUAGUGCCAAGGGGGCCUGGAGGCUUGGACUGGGCAGAGCUCAACACAGCGUGGCAAAGUGGCUGUGGCUAGACUGCCUCUCUGGAUUCCUCGUCACCCAGCAGGGCUUCUCUGAGAGAAAUGCC [U29C A43G U45C U119C A129U] | 1.31
13 | UACGUAGGUGGUUUUCCCCUGAUAGUGCCAAGGGGGCCUGGAAGUUUGGACUGGGCAGAGCUCAACACAGCGUGGCAAAGUGGCUGUGGCUAGACUGCCUCUCUGGAUUCCUCGUCACUCAGCAGGGCGUCUCUGAGAGAAGAGCC [U29C A129G A142G U143A] | 1.53
14 | UACGUAGGUGGUUUUCCCCUGAUAGUGCCAAGGGGGCCUGGAAGUUUGGACUGGGCAGAGCUCAACACUGCGUGGCAAAGUGGCUGUGGCUAGACUGCCUCUCUGGAUUCCUCGUCACUCAGCAGGGCAUCUCUGAGAGAAGUGCC [U29C A69U A142G] | 0.11
15 | UACGUAGGUGGUUUUCCCCUGAUAGUGCCAAGGGGGCCUGGGAGUUUGGACUGGGCAGAGCUCAACACAGCGUGGCAAAGUGGCUGCGGCUAGACUGCCUCUCUGGAUUCCUCGUCACUCAGCAGGGCAUCUCUGAGAGAAAUGCC [U29C A42G U87C] | 0
16 | UACGUAGGUGGUUUUCCCCUGAUAGUGCCAAGGGGGCCUGGAAGUUUGGACUGGGCAGAGCUCAACACAGCGUGGCAAAGUGGCUGUGGAUAGACUGCUUCUCUGGAUUCCUCGUCACUCAGCAGGGCAUCUCAGAGAGAAAUGCC [U29C C90A C99U U134A] | 0.07
17 | UACGUAGGUGGUUUUCCCCUGAUAGUGCCAAGGGGGCCUGGAAGUUUGGGCUGGGCAGAGCUCAACACAGCGUGGCAAAGUGGCUGUGGCUAGACUGCCUCCCUGGAUUCCUCGUCUCUCAGCAGGGCAUCUCUGAGAGAAAUGCC [U29C A50G U102C A117U] | 1.89
18 | UACGUAGGUGGUUUUCCCCUGAUAGUGCCAAGGGGACCUGGAAGUUUGGACUGGCCAGAGCUCAACACAGCGUGGCAAAGUGGCUGUGGCUAGACUGCCUCUCUGGAUUCCUCGUCACUCAGCAGGGCAUCUCUGAGAGAAAUGCC [U29C G36A G55C] | 0.16
19 | UACGUAGGUGGUUUUCCCCUGAUAGUGCCAAGGGGGCCUGGAAGUUUGGACUGGGCGGAGCUCAACACCGCGUGGCAAAGUGACUGUGGCUAGACUGCCUCUCUGGACUCCUCGUCACUCAGCAGGGCAUCUCUGAGAGAGAUGCC [U29C A57G A69C G83A U108C A141G] | 0.16

— the RNAGym collection of RNA variant scans (doi:10.7554/elife.90254)
